# The supplement of paper PMC12217912
# The other results are listed elsewhere or left out. The full chains were built here from the parent and the listed change. Inactive controls read about 0.05.
# B1: TEV protease; numbered along this chain (parent)
# chain: MGESLFKGPRDYNPISSSICHLTNESDGHTTSLYGIGFGPFIITNKHLFRRNNGTLVVQSLHGVFKVKDTTTLQQHLVDGRDMIIIRMPKDFPPFPQKLKFREPQREERICLVTTNFQTKSMSSMVSDTSCTFPSGDGIFWKHWIQTKDGQCGSPLVSTRDGFIVGIHSASNFTNTNNYFTSVPKNFMELLTNQEAQQWVSGWRLNADSVLWGGHKVFMVKPEEPFQPVKEATQL
# Variants of: B1
# Test: raw area under fraction-flipped curve 0-4 h after induction (AUC4h, not background-subtracted), DNA-recorder readout of cleavage of the substrate (dimensionless); higher = more cleavage of the substrate by the protease variant
# Settings: temperature: 34 °C; time window: 0-4 h after rhamnose induction
# 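Further: Bxb1 expression induced with 0.2% (w/v) L-rhamnose at OD600 near 0.5, cultures sampled hourly, flipped fraction per protease–substrate barcode pair counted by paired-end Illumina sequencing.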
Variant,area with substrate ENLYCQS,area with substrate ENLYDQS,area with substrate ENLYEQS,area with substrate ENLYGQS,area with substrate ENLYHQS,area with substrate ENLYIQS,area with substrate ENLYKQS,area with substrate ENLYMQS,area with substrate ENLYPQS,area with substrate ENLYQQS,area with substrate ENLYRQS,area with substrate ENLYSQS,area with substrate ENLYTQS,area with substrate ENLYVQS,area with substrate ENLYWQS,area with substrate ENLYYQS,area with substrate ENLYNQS,area with substrate ENLYLQS
MGESLFKGPRDYNPISSSICHLTNESDGHTTSLYGIGFGPFIITNKHLFRRFNGTLVVQSLHGVFKVKDTTTLQQHLVDGRDMIIIRMPKDFPPFPQKLKFREPQREERICLVTTNFQTKSMSSMVSDTSCTFPSGDGIFWKHWIQTKDGQCGSPLVSTRDGFIVGIHSASNFTNTNNYFTSVPKNFMELLTNQEAQQWVSGWRLNADSVLWGGHKVFMVKPEEPFQPVKEATQL [N52F],0.0559,0.0569,0.063,0.0651,0.059,0.0768,0.0643,0.059,0.062,0.0666,0.0666,0.0645,0.0543,0.0625,0.0538,0.0772,,
MGESLFKGPRDYNPISSSICHLTNESDGHTTSLYGIGFGPFIITNKHLFRRNNGTLVVQSLHGVFKVKDTTTLQQHLVDGRDMIIIRMPIDFPPFPQKLKFREPQREERICLVTTNFQTKSMSSMVSDTSCTFPSGDGIFWKHWIQTKDGQCGSPLVSTRDGFIVGIHSASNFTNTNNYFTSVPKNFMELLTNQEAQQWVSGWRLNADSVLWGGHKVFMVKPEEPFQPVKEATQL [K90I],0.0767,0.0579,0.0614,0.0641,0.0944,0.126,0.0588,,0.0741,0.067,,,0.0794,0.085,0.078,0.065,0.0647,
MGESLFKGPRDYNPISSSICHLTNESDGHTTSLYGIGFGPFIITNKHLFRRNGGTLVVQSLHGVFKVKDTTTLQQHLVDGRDMIIIRMPKDFPPFPQKLKFREPQREERICLVTTNFQTKSMSSMVSDTSCTFPSGDGIFWKHWIQTKDGQCGSPLVSTRDGFIVGIHSASNFTNTNNYFTSVPKNFMELLTNQEAQQWVSGWRLNADSVLWGGHKVFMVKPEEPFQPVKEATQL [N53G],0.0882,0.0656,0.0605,0.0646,0.0633,0.0853,0.0692,0.0729,0.0693,0.0512,,0.0707,0.0811,0.0953,,0.042,0.0584,0.0739
MGESLFKGPRDYNPISSSICHLTNESDGHTTSLYGIGFGPFIITNKHLFRRNNGTLVVQSLHGVFKVKDTTTLDQHLVDGRDMIIIRMPKDFPPFPQKLKFREPQREERICLVTTNFQTKSMSSMVSDTSCTFPSGDGIFWKHWIQTKDGQCGSPLVSTRDGFIVGIHSASNFTNTNNYFTSVPKNFMELLTNQEAQQWVSGWRLNADSVLWGGHKVFMVKPEEPFQPVKEATQL [Q74D],0.0813,0.0536,0.0649,0.0592,0.0738,0.155,0.0545,0.084,0.0755,0.0736,0.0579,0.0736,,0.117,0.0852,,,
MGESLFKGPRDYNPISSSICHLTNESDGHTTSLYGIGFGPFIITNKHLFRRNNGTLVVQSLHGVFKVKDTATLQQHLVDGRDMIIIRMPKDFPPFPQKLKFREPQREERICLVTTNFQTKSMSSMVSDTSCTFPSGDGIFWKHWIQTKDGQCGSPLVSTRDGFIVGIHSASNFTNTNNYFTSVPKNFMELLTNQEAQQWVSGWRLNADSVLWGGHKVFMVKPEEPFQPVKEATQL [T71A],0.0806,0.0607,0.0627,0.0591,0.086,0.121,0.0562,0.0908,0.0648,0.0678,0.0578,0.0683,,,0.133,0.0658,0.0599,
MGESLFKGPRDYNPISSSICHLTNESDGHTTSLYGIGFGPFIITNKHLFRRNNGTLKVQSLHGVFKVKDTTTLQQHLVDGRDMIIIRMPKDFPPFPQKLKFREPQREERICLVTTNFQTKSMSSMVSDTSCTFPSGDGIFWKHWIQTKDGQCGSPLVSTRDGFIVGIHSASNFTNTNNYFTSVPKNFMELLTNQEAQQWVSGWRLNADSVLWGGHKVFMVKPEEPFQPVKEATQL [V57K],0.0204,,0.0665,0.0569,,,0.0889,,,,,0.0831,,0.114,0.0768,0.0553,0.0665,
MGESLFKGPRDYNPISSSICHLTNESDGHTTSLYGIGFGPFIITNKHLFRRNNGTLTVQSLHGVFKVKDTTTLQQHLVDGRDMIIIRMPKDFPPFPQKLKFREPQREERICLVTTNFQTKSMSSMVSDTSCTFPSGDGIFWKHWIQTKDGQCGSPLVSTRDGFIVGIHSASNFTNTNNYFTSVPKNFMELLTNQEAQQWVSGWRLNADSVLWGGHKVFMVKPEEPFQPVKEATQL [V57T],0.087,0.0556,0.0726,,0.0669,0.124,0.0795,0.0989,0.0872,0.0598,0.0748,,,,0.0886,,0.0588,0.0891
MGESLFKGPRDYNPISSSICHLTNESDGHTTSLYGIGFGPFIITNKHLFRRNNGTLVVQSLHGVFKVKDTTTLQQHLVDGRDMIKIRMPKDFPPFPQKLKFREPQREERICLVTTNFQTKSMSSMVSDTSCTFPSGDGIFWKHWIQTKDGQCGSPLVSTRDGFIVGIHSASNFTNTNNYFTSVPKNFMELLTNQEAQQWVSGWRLNADSVLWGGHKVFMVKPEEPFQPVKEATQL [I85K],0.0592,0.0552,0.0547,0.0452,0.0636,0.0318,0.0372,0.0579,0.0623,0.0583,0.0574,,,,,,0.0542,
MGESLFKGPRDYNPISSSICHLTNESDGHTTSLYGIGFGPFIITNKHLFRRNNGTLVVQSLHGVFKVKDTTTLQQHLADGRDMIIIRMPKDFPPFPQKLKFREPQREERICLVTTNFQTKSMSSMVSDTSCTFPSGDGIFWKHWIQTKDGQCGSPLVSTRDGFIVGIHSASNFTNTNNYFTSVPKNFMELLTNQEAQQWVSGWRLNADSVLWGGHKVFMVKPEEPFQPVKEATQL [V78A],0.0645,0.0469,0.0575,0.0562,0.0624,0.0874,0.0574,0.0691,0.0591,0.0583,0.0634,0.0509,0.0687,0.0746,0.0434,0.0609,0.0619,0.0584
